# Experimental data reported in the supplement of paper PMC8728848.
# Some of the results follow.
# Experiments:
# Test in all cases: glycan array binding signal (z-score within array); higher = stronger binding
# Conditions in all cases: glycan notation: IUPAC condensed, linker removed
# [1] = molecular target: Gal(b1-4)GlcNAc(b1-2)Man(a1-6)[Man(a1-3)]Man(b1-4)GlcNAc(b1-4)GlcNAc
# Summary of the method: (§1)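 Negative Z-scores can be read as non-binding. The Z-score is calculated within each array and then averaged across arrays of one protein sequence at different concentrations or buffers and across linkers. Arrays, 3228 in all, were curated from the Consortium for Functional Glycomics database and kept only where the protein sequence was available.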
# [2] = molecular target: Gal(b1-4)GlcNAc(b1-2)[Gal(b1-4)GlcNAc(b1-4)]Man(a1-3)[Gal(b1-4)GlcNAc(b1-2)Man(a1-6)]Man(b1-4)GlcNAc(b1-4)GlcNAc
# Summary of the method: as §1
# [3] = molecular target: Gal(b1-4)GlcNAc(b1-2)[Gal(b1-4)GlcNAc(b1-4)]Man(a1-3)[Gal(b1-4)GlcNAc(b1-2)[Gal(b1-4)GlcNAc(b1-6)]Man(a1-6)]Man(b1-4)GlcNAc(b1-4)GlcNAc
# Summary of the method: as §1
# [4] = molecular target: Gal(b1-4)GlcNAc(b1-2)[Gal(b1-4)GlcNAc(b1-4)]Man(a1-3)[GlcNAc(b1-4)][Gal(b1-4)GlcNAc(b1-2)Man(a1-6)]Man(b1-4)GlcNAc(b1-4)GlcNAc
# Summary of the method: as §1
# [5] = molecular target: Gal(b1-4)GlcNAc(b1-2)[Gal(b1-4)GlcNAc(b1-4)]Man(a1-3)[GlcNAc(b1-4)][Gal(b1-4)GlcNAc(b1-2)[Gal(b1-4)GlcNAc(b1-6)]Man(a1-6)]Man(b1-4)GlcNAc(b1-4)GlcNAc
# Summary of the method: as §1
# [6] = molecular target: Gal(b1-4)GlcNAc(b1-2)[Gal(b1-4)GlcNAc(b1-6)]Man(a1-6)[Gal(b1-4)GlcNAc(b1-2)Man(a1-3)]Man(b1-4)GlcNAc(b1-4)GlcNAc
# Summary of the method: as §1
# [7] = molecular target: Gal(b1-4)GlcNAc(b1-2)[Gal(b1-4)GlcNAc(b1-6)]Man(a1-6)[Gal(b1-4)GlcNAc(b1-2)Man(a1-3)]Man(b1-4)GlcNAc(b1-4)[Fuc(a1-6)]GlcNAc
# Summary of the method: as §1
# [8] = molecular target: Gal(b1-4)GlcNAc(b1-2)[Gal(b1-4)GlcNAc(b1-6)]Man(a1-6)[GlcNAc(b1-4)][Gal(b1-4)GlcNAc(b1-2)Man(a1-3)]Man(b1-4)GlcNAc(b1-4)GlcNAc
# Summary of the method: as §1
# [9] = molecular target: Gal(b1-4)GlcNAc(b1-2)[Gal(b1-4)GlcNAc(b1-6)]Man(a1-6)[GlcNAc(b1-4)][Gal(b1-4)GlcNAc(b1-2)[Gal(b1-4)GlcNAc(b1-4)]Man(a1-3)]Man(b1-4)GlcNAc(b1-4)[Fuc(a1-6)]GlcNAc
# Summary of the method: as §1
# [10] = molecular target: Gal(b1-4)GlcNAc(b1-3)Gal(b1-3)GalNAc
# Summary of the method: as §1
# [11] = molecular target: Gal(b1-4)GlcNAc(b1-3)Gal(b1-3)GlcNAc
# Summary of the method: as §1
# [12] = molecular target: Gal(b1-4)GlcNAc(b1-3)Gal(b1-4)Glc
# Summary of the method: as §1
# [13] = molecular target: Gal(b1-4)GlcNAc(b1-3)Gal(b1-4)GlcNAc
# Summary of the method: as §1
# [14] = molecular target: Gal(b1-4)GlcNAc(b1-3)Gal(b1-4)GlcNAc(b1-2)Man(a1-3)[Gal(b1-4)GlcNAc(b1-3)Gal(b1-4)GlcNAc(b1-2)Man(a1-6)]Man(b1-4)GlcNAc(b1-4)GlcNAc
# Summary of the method: as §1
# [15] = molecular target: Gal(b1-4)GlcNAc(b1-3)Gal(b1-4)GlcNAc(b1-2)Man(a1-3)[Gal(b1-4)GlcNAc(b1-3)Gal(b1-4)GlcNAc(b1-2)Man(a1-6)]Man(b1-4)GlcNAc(b1-4)[Fuc(a1-6)]GlcNAc
# Summary of the method: as §1
# [16] = molecular target: Gal(b1-4)GlcNAc(b1-3)Gal(b1-4)GlcNAc(b1-2)[Gal(b1-4)GlcNAc(b1-3)Gal(b1-4)GlcNAc(b1-6)]Man(a1-6)[Gal(b1-4)GlcNAc(b1-3)Gal(b1-4)GlcNAc(b1-2)Man(a1-3)]Man(b1-4)GlcNAc(b1-4)GlcNAc
# Summary of the method: as §1
# [17] = molecular target: Gal(b1-4)GlcNAc(b1-3)Gal(b1-4)GlcNAc(b1-2)[Gal(b1-4)GlcNAc(b1-3)Gal(b1-4)GlcNAc(b1-6)]Man(a1-6)[Gal(b1-4)GlcNAc(b1-3)Gal(b1-4)GlcNAc(b1-2)Man(a1-3)]Man(b1-4)GlcNAc(b1-4)[Fuc(a1-6)]GlcNAc
# Summary of the method: as §1
# [18] = molecular target: Gal(b1-4)GlcNAc(b1-3)Gal(b1-4)GlcNAc(b1-3)Gal(b1-4)GlcNAc
# Summary of the method: as §1
# [19] = molecular target: Gal(b1-4)GlcNAc(b1-3)Gal(b1-4)GlcNAc(b1-3)Gal(b1-4)GlcNAc(b1-2)Man(a1-3)[Gal(b1-4)GlcNAc(b1-3)Gal(b1-4)GlcNAc(b1-3)Gal(b1-4)GlcNAc(b1-2)Man(a1-6)]Man(b1-4)GlcNAc(b1-4)GlcNAc
# Summary of the method: as §1
# [20] = molecular target: Gal(b1-4)GlcNAc(b1-3)Gal(b1-4)GlcNAc(b1-3)Gal(b1-4)GlcNAc(b1-2)Man(a1-3)[Gal(b1-4)GlcNAc(b1-3)Gal(b1-4)GlcNAc(b1-3)Gal(b1-4)GlcNAc(b1-2)Man(a1-6)]Man(b1-4)GlcNAc(b1-4)[Fuc(a1-6)]GlcNAc
# Summary of the method: as §1
# [21] = molecular target: Gal(b1-4)GlcNAc(b1-3)Gal(b1-4)GlcNAc(b1-3)Gal(b1-4)GlcNAc(b1-2)[Gal(b1-4)GlcNAc(b1-3)Gal(b1-4)GlcNAc(b1-3)Gal(b1-4)GlcNAc(b1-6)]Man(a1-6)[Gal(b1-4)GlcNAc(b1-3)Gal(b1-4)GlcNAc(b1-3)Gal(b1-4)GlcNAc(b1-2)Man(a1-3)]Man(b1-4)GlcNAc(b1-4)[Fuc(a1-6)]GlcNAc
# Summary of the method: as §1
# [22] = molecular target: Gal(b1-4)GlcNAc(b1-3)Gal(b1-4)GlcNAc(b1-3)Gal(b1-4)GlcNAc(b1-3)Gal(b1-4)GlcNAc(b1-2)Man(a1-3)[Gal(b1-4)GlcNAc(b1-3)Gal(b1-4)GlcNAc(b1-3)Gal(b1-4)GlcNAc(b1-3)Gal(b1-4)GlcNAc(b1-2)Man(a1-6)]Man(b1-4)GlcNAc(b1-4)GlcNAc
# Summary of the method: as §1
binder,measurement,setting,value
PLU (Photorhabdus luminiscence) (protein) HHHHHHENLYFQSSIVFASIDPRSNPLQTSSQNYVDIPGLKLDVSKYSNSPCLTALITLNIPTPYASGNNFPGGNFAIVTDQGEQLAYGGFTYSSKIPENSGRMPFTLVARYSLASNVSTIKAQWSNIRGSTVHIDSYASISAVIQCNQLV,glycan array binding signal (z-score),[1],-0.259
same,glycan array binding signal (z-score),[2],-0.291
same,glycan array binding signal (z-score),[3],-0.318
same,glycan array binding signal (z-score),[4],-0.305
same,glycan array binding signal (z-score),[5],-0.298
same,glycan array binding signal (z-score),[6],-0.278
same,glycan array binding signal (z-score),[7],-0.162
same,glycan array binding signal (z-score),[8],-0.222
same,glycan array binding signal (z-score),[9],-0.282
same,glycan array binding signal (z-score),[10],-0.433
same,glycan array binding signal (z-score),[11],-0.332
same,glycan array binding signal (z-score),[12],-0.238
same,glycan array binding signal (z-score),[13],-0.271
same,glycan array binding signal (z-score),[14],-0.21
same,glycan array binding signal (z-score),[15],-0.131
same,glycan array binding signal (z-score),[16],-0.215
same,glycan array binding signal (z-score),[17],-0.219
same,glycan array binding signal (z-score),[18],-0.275
same,glycan array binding signal (z-score),[19],-0.23
same,glycan array binding signal (z-score),[20],-0.256
same,glycan array binding signal (z-score),[21],-0.211
same,glycan array binding signal (z-score),[22],-0.179
